# In all, about 110,000 compounds were measured (“z-score”: median about -0.1, highest 2% from about 2 on). This is one part of the list. The source made the active and inactive calls.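 How the source made its calls: active means z-score in the third read window above 3 or below -3; inactive means the rest.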
# Biological target: Metabotropic glutamate receptor 8 (Rattus norvegicus) (UniProt P70579)
# Test: rat mGluR8 modulators via GIRK flux, primary screen, cell-based, thallium flux, HTS (AID 488969)
# Details: HEK293 rat mGluR8, GIRK (G protein-gated inwardly rectifying potassium channel) thallium flux, FluoZin2; at 10 µM; stronger effect = higher value; submaximal glutamate (EC20) added with thallium
# UniProt P70579, sequence (P70579 whole entry, looked up): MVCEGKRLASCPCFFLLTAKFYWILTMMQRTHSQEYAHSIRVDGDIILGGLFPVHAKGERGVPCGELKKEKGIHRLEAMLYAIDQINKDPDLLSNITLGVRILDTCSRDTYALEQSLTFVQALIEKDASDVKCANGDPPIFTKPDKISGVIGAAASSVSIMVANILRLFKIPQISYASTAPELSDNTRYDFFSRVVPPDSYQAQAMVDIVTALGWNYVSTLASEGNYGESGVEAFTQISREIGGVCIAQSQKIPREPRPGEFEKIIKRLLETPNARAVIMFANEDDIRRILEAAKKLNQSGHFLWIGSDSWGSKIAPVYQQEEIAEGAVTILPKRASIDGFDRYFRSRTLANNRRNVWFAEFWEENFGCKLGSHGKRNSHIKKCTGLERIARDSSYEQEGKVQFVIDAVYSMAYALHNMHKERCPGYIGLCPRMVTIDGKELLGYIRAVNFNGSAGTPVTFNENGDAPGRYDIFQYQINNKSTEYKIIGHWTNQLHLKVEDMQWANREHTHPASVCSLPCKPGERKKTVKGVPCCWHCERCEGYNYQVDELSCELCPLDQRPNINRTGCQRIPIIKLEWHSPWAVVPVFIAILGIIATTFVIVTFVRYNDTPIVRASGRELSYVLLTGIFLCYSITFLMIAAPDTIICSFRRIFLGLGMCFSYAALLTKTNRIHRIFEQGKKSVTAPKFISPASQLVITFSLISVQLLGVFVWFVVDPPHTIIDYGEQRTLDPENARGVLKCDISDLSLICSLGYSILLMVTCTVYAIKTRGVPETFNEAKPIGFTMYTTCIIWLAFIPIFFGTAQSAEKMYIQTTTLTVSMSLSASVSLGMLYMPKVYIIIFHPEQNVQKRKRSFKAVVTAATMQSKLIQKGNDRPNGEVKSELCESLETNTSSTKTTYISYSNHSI
row,Compound,z-score
1,Cc1ccccc1C(=O)Nc1nnc(-c2ccc(F)cc2)o1,-0.035
2,Cc1ccccc1OCCCC(=O)Nc1ccc2c(c1)OCO2,0.157
3,CCOc1ccc(/C=C/C(=O)Nc2ccc3[nH]c(=O)[nH]c3c2)cc1,0.494
4,Cc1noc(NS(=O)(=O)c2ccc(N/C=C/C(=O)c3ccccc3)cc2)c1C,-0.0688
5,O=S(=O)(c1ccc(F)cc1)N1CCN(c2ncnc3c2cnn3-c2ccccc2)CC1,2.11
6,Cc1ccc2c(ccc[n+]2CC(=O)c2ccccc2)c1,0.0557
7,Cc1nc(SCC(=O)c2ccc(F)cc2)c([N+](=O)[O-])[nH]1,-0.292
8,COc1ccc(O)c(-c2[nH]ncc2C(=O)c2ccccc2)c1,0.0376
9,O=C(Nc1ccc2c(c1)CCC2)c1cccc(S(=O)(=O)N2CCN(c3ccc(F)cc3)CC2)c1,-0.224
10,C1CSC2(N1)C1CC3CC2CC(C1)C31NCCS1 (stereo unspecified),0.602
11,CCCNC(=O)NC(C)C12CC3CC(CC(C3)C1)C2 (stereo unspecified),-0.173
12,Cc1cc(NC(=O)CCC(=O)N(CC(=O)NCC2CCCO2)Cc2ccc(F)cc2)no1 (stereo unspecified),-0.218
13,O=C(c1cccc(Cl)c1)N1CCN(C2CCCCCC2)CC1,0.678
14,CCC(=O)c1cc(F)c(N2CCN(S(=O)(=O)c3ccccc3)CC2)cc1C,-0.247
15,CCNc1nc(NCC)nc(N(C)n2cnnc2)n1,-0.0641
16,O=C(O)c1cc(S(=O)(=O)N2CCCC2)ccc1Br,0.147
17,CC(=O)c1cccc(NC(=O)CN(c2cccc(F)c2)S(C)(=O)=O)c1,-0.268
18,CC(=O)Nc1ccc(S(=O)(=O)N2CCc3ccccc3C2)cc1,0.446
19,Cc1cc2nnc(SCC(=O)N3C(C)CCCC3C)n2c(N)n1 (stereo unspecified),-0.291
20,NC(=O)CSc1nnnn1-c1ccc2c(c1)OCCO2,-0.327
21,Cc1cc(NC(=O)Nc2cccc3ccccc23)no1,0.348
22,CCn1nc(C)c(Oc2ccccc2O)c1C,-0.589
23,CCCC(=O)Nc1nc2ccc(S(=O)(=O)N3CCCCC3)cc2s1,-0.273

row,Compound,z-score
1,Cc1cc(C)n(C(=O)c2ccc(NC(=O)CC(C)C)cc2)n1,0.147
2,CCOC(=O)Cc1csc(NC(=O)C2CCCCC2C(=O)O)n1 (stereo unspecified),0.749
3,O=C(CSCC(=O)Nc1ccccc1)N/N=C/c1c(O)ccc2ccccc12,-0.0184
4,Cc1ccc(-c2ccc(/C=N/N3C(=O)C4C5C=CC(C6CC56)C4C3=O)o2)c([N+](=O)[O-])c1 (stereo unspecified),-0.416
5,CCOC(=O)Nc1ccc(Oc2ccccc2)cc1,-0.451
6,O=C(CSc1ccc2ccccc2n1)c1ccc2c(c1)OCO2,-0.358
7,O=C(O)CSc1nnnn1-c1ccc2c(c1)OCCO2,-0.0806
8,COc1ccc(NC(=O)N2CCC(C(=O)c3ccc(F)cc3)CC2)cc1,0.923
9,O=C(CSc1nnc(CNC(=O)c2cccs2)o1)c1ccccc1,-0.102
10,O=C(CSC1=NCCS1)N1CCN(c2ccc(Cl)cc2)CC1,0.56
11,Cc1ccc(C)c(/C(O)=C2\C(=O)C(=O)N(CCCN3CCOCC3)C2c2cccnc2)c1 (stereo unspecified),-0.222
12,CCC(C)(C)n1nnnc1CN(Cc1cc2cc(OC)ccc2[nH]c1=O)C1CCCC1,-0.199
13,CCOC(=O)C1=C(C)C2C3C(=O)N(c4ccccc4C)C(=O)C3C1(C)C1C(=O)N(c3ccccc3C)C(=O)C21 (stereo unspecified),-0.246
14,O=S(=O)(NCC1CCCO1)c1ccc(S(=O)(=O)N2CCc3ccccc3C2)cc1 (stereo unspecified),0.1
15,CCC(C)N(C(=O)COC(=O)/C=C/c1ccc(O)c(OC)c1)C1CCS(=O)(=O)C1 (stereo unspecified),0.211
16,COc1cccc(C(=O)N2CCN(Cc3ccc4c(c3)OCO4)CC2)c1OC,0.584
17,O=C(COC(=O)CCCSc1nc2ccccc2[nH]1)NC(=O)NC1CCCC1,-0.664
18,O=C(Nc1ccc2[nH]c(=S)sc2c1)c1ccccc1,active: 11.9
19,Fc1ccc(OCCOCCNCC2CCCO2)cc1 (stereo unspecified),0.411
20,COc1ccc2c(C)cc(SCn3nnc4ccccc4c3=O)nc2c1,-0.169
21,Cn1nc([N+](=O)[O-])c(C(C#N)c2nc3ccccc3n2C)c(Cl)c1=O (stereo unspecified),0.13
22,COC(=O)c1cn(NC(=O)c2cc(OC)cc(OC)c2)c(=O)c2ccccc12,-0.347
23,Cc1ccnc(Sc2ncccc2[N+](=O)[O-])n1,-0.064

row,Compound,z-score
1,O=c1[nH]c(=O)n(Cc2ccccc2)c2c1C(C(F)(F)F)(C(F)(F)F)N=C(c1ccco1)N2,-0.882
2,CCc1nnc(NC(=O)CN2CCN(c3nc(-c4ccccc4)cs3)CC2)s1,-0.549
3,COC(=O)c1ccc(OCC(O)Cn2nnc3ccccc32)cc1 (stereo unspecified),-0.0658
4,COc1ccccc1-n1cnnc1SCC(=O)Nc1cc(C(C)(C)C)nn1-c1ccccc1,-0.532
5,CCS(=O)(=O)Nc1cccc(-c2cc(-c3ccccc3)c3cc(C)ccc3n2)c1,0.0339
6,COC(=O)CCC(=O)c1oc2ccc(Br)cc2c1N,-0.218
7,O=C(NCc1ccc2c(c1)OCO2)c1nn2cccnc2c1Cl,-0.119
8,O=S(=O)(NCCc1cn2ccccc2n1)c1cccs1,-0.209
9,O=C(CSc1nc2ccccc2s1)NC1CCCc2ccccc21 (stereo unspecified),-0.233
10,Cc1ccc2c(Cl)c(C(=O)NCCc3ccccc3)sc2c1,-0.648
11,COc1ccc(C2CC(c3ccccc3)Nc3ncnn32)cc1 (stereo unspecified),-0.0835
12,COc1ccc(C(=O)Oc2ccc(/C=N/NC(=O)Cc3ccc([N+](=O)[O-])cc3)cc2)cc1,0.194
13,COc1ccc(OC)c(S(=O)(=O)NCCC2=CCCCC2)c1,0.351
14,O=C(CCn1c2c(c3ccccc31)CCCC2)NNC(=O)c1ccccc1[N+](=O)[O-],0.0578
15,Cn1c(=O)c2c(ncn2CC(=O)N2CCCc3ccccc32)n(C)c1=O,-0.221
16,CN(C)S(=O)(=O)c1ccc(S(=O)(=O)N(Cc2ccco2)Cc2ccccc2Cl)cc1,-0.0415
17,Cc1cc(-c2ccccc2)n(-c2ccc(C(=O)N3CCN(c4ncccn4)CC3)cc2)n1,-0.572
18,Nc1nc(N)nc(-c2ccccc2)n1,0.212
19,CCCc1nnc(NC(=O)Cn2c(=O)sc3ccccc32)s1,-0.0252
20,O=C(Nc1cccc(Cl)c1)c1ccc2c(=O)n3c(nc2c1)CCCCC3,0.0126
21,CCCCCC(=O)Nc1nc(C)c(-c2csc(Nc3cc(Cl)ccc3OC)n2)s1,-0.438
22,COc1ccc2oc(=O)c(/C(C)=N/NC(=O)c3ccncc3)cc2c1,-0.0773
23,Cc1cccc(N2C(=O)CC(N(O)c3ccccc3)C2=O)c1 (stereo unspecified),-0.319

row,Compound,z-score
1,COc1ccc(OC)c(N2C(=O)[C@@H]3C(c4ccccc4Cl)=NO[C@@H]3C2=O)c1,0.0684
2,Cc1ccccc1Cn1cc(S(=O)(=O)CC(=O)Nc2nccs2)c2ccccc21,0.23
3,COC(=O)C1=C(C)N=C2SC(C)C(=O)N2C1c1cccc(F)c1 (stereo unspecified),-0.721
4,CC1Cc2ccccc2N1C(=O)CNCCCN(C)C (stereo unspecified),-0.471
5,Cn1cc(Cl)c(C(=O)OCC(=O)Nc2ccccc2)n1,-0.0575
6,COc1ccc(-c2c(C)n([O-])c3c([n+]2=O)CCCCC3)cc1,-0.0733
7,CCOc1ccccc1/C=c1\sc2nc(-c3ccco3)nn2c1=O,-1.26
8,COc1ccc(CCn2c(SCC(=O)Nc3cc(C)on3)nc3ccccc3c2=O)cc1OC,-0.632
9,COc1ccc(S(=O)(=O)N2CCC(C(=O)NCc3ccccn3)CC2)cc1Cl,-0.477
10,CC(C)CNC(=O)C1CC(=O)OC12CCCCC2 (stereo unspecified),0.0145
11,Cn1c(N)c(C(=O)COC(=O)C2CCC(C(C)(C)C)CC2)c(=O)n(C)c1=O (stereo unspecified),0.181
12,COc1ccc(C(=O)NNC2CC(=O)N(Cc3ccc(Cl)cc3)C2=O)cc1OC (stereo unspecified),-0.305
13,Cc1cc(-c2n[nH]c(=S)n2/N=C/C=C/c2ccccc2)n[nH]1,-0.122
14,Cc1ccc(S(=O)(=O)N(Cc2ccccc2)c2ccccc2C(=O)NCc2ccco2)cc1,-0.308
15,CCCCCCCC(=O)NN=C1CCN(Cc2ccccc2)CC1,-0.377
16,CCOc1ccc(C(Nc2ccc(C)cc2)P2(=O)OCCC(C)O2)cc1 (stereo unspecified),-0.269
17,Cn1c(=O)c2c(nc(N3CCOCC3)n2C)n(C)c1=O,-0.101
18,Cc1c(Cl)cnc(NC(=O)COC(=O)c2ccc(S(=O)(=O)NCc3ccco3)cc2)c1Cl,-0.169
19,COC(=O)c1cnc2c(c1C(=O)OC)c(=O)n(C)c(=O)n2C,0.485
20,CC(C)(C)C(=O)CSc1nccc(=O)[nH]1,0.0433
21,COc1ccc(OCC(=O)c2c(O)c3ccccc3oc2=O)cc1,0.247
22,CNc1nc(SC)nc(N(C#N)CC(=O)OC)n1,-0.301
23,COCC(=O)Nc1ccccc1C#N,-0.0192

row,Compound,z-score
1,COc1cc(NC(C)C(=O)N2CC(C)OC(C)C2)cc(OC)c1 (stereo unspecified),0.154
2,CC(C)C1C(C#N)=C(N)SC(N)=C1C#N,0.282
3,Cc1ccc2nc(SCC(=O)NCC3CCCO3)c(C#N)cc2c1 (stereo unspecified),-0.315
4,O=C(NCCCN1CCOCC1)c1cc2ccccc2oc1=O,-0.716
5,c1ccc2sc(Sc3ncnc4sccc34)nc2c1,-0.464
6,COc1ccccc1N1CCN(C(=O)Cn2c(=O)[nH]c3ccsc3c2=O)CC1,-0.563
7,Cc1ccc(NC(=O)Cc2ncc(C(F)(F)F)cc2Cl)cc1Cl,0.904
8,Cc1c(NC(=O)c2cnn3c(C(F)(F)F)cc(-c4ccco4)nc23)c(=O)n(-c2ccccc2)n1C,0.95
9,Cc1cccc(OCC2=N/C(=C\N(C)C)C(=O)O2)c1,-0.718
10,CCN1CC(C)C(O)(c2ccccc2)CC1C (stereo unspecified),0.0176
11,CCOC(=O)c1nnc(-c2ccc(C)cc2)nc1Sc1ccc(Cl)cc1,-0.269
12,Cc1cc2ccc(C)c(C)c2nc1SCC#N,0.515
13,CCN1C(=O)N(C)C(N(O)C(=O)NC)C1(C)C (stereo unspecified),-0.0429
14,C=CC(=O)NC(C)(C)Cc1ccccc1,0.41
15,CCCc1cc2c(cc1NC(=O)c1ccccc1Cl)OCO2,-0.5
16,O=C(NC1CCCCC1)C(c1ccc(Cl)cc1)N(C(=O)c1cnccn1)c1ccc2c(c1)OCO2 (stereo unspecified),-0.582
17,CCOC(=O)C1=C(C)N=C2SC(C)C(=O)N2C1c1ccc(OC(C)=O)c(OC)c1 (stereo unspecified),0.228
18,CS(=O)(=O)N1CCN(c2ccccc2NC(=O)c2ccco2)CC1,-0.175
19,Cc1c(C(=O)O)sc(=S)n1-c1ccc(Cl)cc1,-0.229
